Earlier results, collected in PMC11006913.
This is one part of the list.

Key:
Details in all cases: PBM; conditions not shown; double strand, one strand shown; scale: upbm affinity estimate (log intensity, higher = more binding, comparable within an allelic series)
ISX (Homo sapiens) = ISX (Homo sapiens) (UniProt Q2M1V0)
ISX R83Q (Homo sapiens) = ISX R83Q (Homo sapiens) (UniProt Q2M1V0)
[1] = target: NKX2-5 K183E (Homo sapiens) (UniProt P52952)
[2] = target: NKX2-5 R161P (Homo sapiens) (UniProt P52952)
[3] = target: NKX2-5 R190C (Homo sapiens) (UniProt P52952)

For CCGGGCTC [8-mer CCGGGCTC], the binding signal (ISX (Homo sapiens)) is given as 9.68 and the binding signal (ISX R83Q (Homo sapiens)) is given as 9.7.

In the case of AGCCCCGG [8-mer AGCCCCGG], the binding signal (ISX (Homo sapiens)) is given as 9.58 and the binding signal (ISX R83Q (Homo sapiens)) is given as 9.76.

In the case of GCCGGCCC [8-mer GCCGGCCC], the binding signal (ISX (Homo sapiens)) is listed as 9.78 and the binding signal (ISX R83Q (Homo sapiens)) is listed as 9.63.

In the case of ACGCCAGG [8-mer ACGCCAGG], the binding signal (ISX (Homo sapiens)) is listed as 9.74 and the binding signal (ISX R83Q (Homo sapiens)) is listed as 9.75.

In the case of GCGCAAGC [8-mer GCGCAAGC], the binding signal (ISX (Homo sapiens)) is listed as 9.66 and the binding signal (ISX R83Q (Homo sapiens)) is listed as 9.7.

For GCCGGGAC [8-mer GCCGGGAC], the binding signal (ISX (Homo sapiens)) is listed as 9.72 and the binding signal (ISX R83Q (Homo sapiens)) is listed as 9.73.

For CTGGGCCC [8-mer CTGGGCCC], the binding signal (ISX (Homo sapiens)) is listed as 9.71 and the binding signal (ISX R83Q (Homo sapiens)) is listed as 9.65.

For CGGCGGTC [8-mer CGGCGGTC], the binding signal (ISX (Homo sapiens)) is listed as 9.54 and the binding signal (ISX R83Q (Homo sapiens)) is listed as 9.68.

In the case of CTCCCCCC [8-mer CTCCCCCC], the binding signal (ISX (Homo sapiens)) is listed as 9.68 and the binding signal (ISX R83Q (Homo sapiens)) is listed as 9.73.

For AGCCGGCA [8-mer AGCCGGCA], the binding signal (ISX (Homo sapiens)) is listed as 9.88, the binding signal (ISX R83Q (Homo sapiens)) is listed as 9.74 and the binding signal [1] is listed as 10. For the same sequence, the binding signal [2] was 9.91 and the binding signal [3] was 9.97.

In the case of CCCTGGCG [8-mer CCCTGGCG], the binding signal (ISX (Homo sapiens)) is given as 9.67 and the binding signal (ISX R83Q (Homo sapiens)) is given as 9.67.

In the case of GCCGTCGC [8-mer GCCGTCGC], the binding signal (ISX (Homo sapiens)) is given as 9.86, the binding signal (ISX R83Q (Homo sapiens)) is given as 9.76 and the binding signal [1] is given as 10.2. The binding signal [2] was 10.2 and the binding signal [3] was 10.2.

For CCCGCCCG [8-mer CCCGCCCG], the binding signal (ISX (Homo sapiens)) is listed as 9.69 and the binding signal (ISX R83Q (Homo sapiens)) is listed as 9.71.

In the case of GGCCTCCC [8-mer GGCCTCCC], the binding signal (ISX (Homo sapiens)) is given as 9.77, the binding signal (ISX R83Q (Homo sapiens)) is given as 9.77 and the binding signal [1] is given as 10. The binding signal [2] was 10.2 and the binding signal [3] was 9.97.

In the case of GCGACCGC [8-mer GCGACCGC], the binding signal (ISX (Homo sapiens)) is listed as 9.58, the binding signal (ISX R83Q (Homo sapiens)) is listed as 9.63 and the binding signal [1] is listed as 9.98. The binding signal [2] was 10.1 and the binding signal [3] was 9.94.

In the case of CGAGCCGC [8-mer CGAGCCGC], the binding signal (ISX (Homo sapiens)) is given as 9.81 and the binding signal (ISX R83Q (Homo sapiens)) is given as 9.72.

For ACGGAGGC [8-mer ACGGAGGC], the binding signal (ISX (Homo sapiens)) is listed as 9.8 and the binding signal (ISX R83Q (Homo sapiens)) is listed as 9.77.

In the case of GCCGGGCA [8-mer GCCGGGCA], the binding signal (ISX (Homo sapiens)) is given as 9.88 and the binding signal (ISX R83Q (Homo sapiens)) is given as 9.73.

In the case of GCCCCCGC [8-mer GCCCCCGC], the binding signal (ISX (Homo sapiens)) is listed as 9.52 and the binding signal (ISX R83Q (Homo sapiens)) is listed as 9.55.

For CAGGCAGG [8-mer CAGGCAGG], the binding signal (ISX (Homo sapiens)) is listed as 9.68 and the binding signal (ISX R83Q (Homo sapiens)) is listed as 9.86.

For AAGTAGCA [8-mer AAGTAGCA], the binding signal (ISX (Homo sapiens)) is listed as 11.3 and the binding signal (ISX R83Q (Homo sapiens)) is listed as 10.5.

For CCCCGACC [8-mer CCCCGACC], the binding signal (ISX (Homo sapiens)) is given as 9.8 and the binding signal (ISX R83Q (Homo sapiens)) is given as 9.76.

In the case of GCCTGTCC [8-mer GCCTGTCC], the binding signal (ISX (Homo sapiens)) is given as 9.83 and the binding signal (ISX R83Q (Homo sapiens)) is given as 9.8.

For CCGGTCCG [8-mer CCGGTCCG], the binding signal (ISX (Homo sapiens)) is given as 9.79 and the binding signal (ISX R83Q (Homo sapiens)) is given as 9.78.

For CCCCATGC [8-mer CCCCATGC], the binding signal (ISX (Homo sapiens)) is listed as 9.69 and the binding signal (ISX R83Q (Homo sapiens)) is listed as 9.75.

In the case of CGCTGGCC [8-mer CGCTGGCC], the binding signal (ISX (Homo sapiens)) is listed as 9.53 and the binding signal (ISX R83Q (Homo sapiens)) is listed as 9.57.

In the case of CCACCGGC [8-mer CCACCGGC], the binding signal (ISX (Homo sapiens)) is given as 9.57 and the binding signal (ISX R83Q (Homo sapiens)) is given as 9.66.

In the case of GGCCCGCA [8-mer GGCCCGCA], the binding signal (ISX (Homo sapiens)) is listed as 9.82 and the binding signal (ISX R83Q (Homo sapiens)) is listed as 9.8.

In the case of ACACGTGT [8-mer ACACGTGT], the binding signal (ISX (Homo sapiens)) is given as 9.85 and the binding signal (ISX R83Q (Homo sapiens)) is given as 9.83.

For CGCTGGGC [8-mer CGCTGGGC], the binding signal (ISX (Homo sapiens)) is given as 9.79 and the binding signal (ISX R83Q (Homo sapiens)) is given as 9.68.
